# The list shows a part of the results.
# Experiments:
# Experiment in all cases: glycan array binding signal (z-score within array); higher = stronger binding
# Conditions in all cases: glycan notation: IUPAC condensed, linker removed
# Gal(a1-3)GalNAc = target: Gal(a1-3)GalNAc
# Procedure, shortened: (§1)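 Arrays were curated from the Consortium for Functional Glycomics database, 3228 in total, and kept only where the protein sequence was available. Binding is expressed as a within-array Z-score. This score was averaged across arrays of the same protein sequence at different concentrations or buffers and across linkers, and negative values can be read as non-binding.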
# [1] = target: Gal(a1-3)[Gal(a1-4)]Gal(b1-4)GlcNAc
# Procedure, shortened: as §1
# [2] = target: Gal(a1-4)Gal(b1-3)GlcNAc(b1-2)Man(a1-3)[Gal(a1-4)Gal(b1-3)GlcNAc(b1-2)Man(a1-6)]Man(b1-4)GlcNAc(b1-4)GlcNAc
# Procedure, shortened: as §1
# Gal(a1-4)Gal(b1-4)Glc = target: Gal(a1-4)Gal(b1-4)Glc
# Procedure, shortened: as §1
# Gal(a1-4)Gal(b1-4)GlcNAc = target: Gal(a1-4)Gal(b1-4)GlcNAc
# Procedure, shortened: as §1
# [3] = target: Gal(a1-4)Gal(b1-4)GlcNAc(b1-2)Man(a1-3)[Gal(a1-4)Gal(b1-4)GlcNAc(b1-2)Man(a1-6)]Man(b1-4)GlcNAc(b1-4)GlcNAc
# Procedure, shortened: as §1
# [4] = target: Gal(a1-4)Gal(b1-4)GlcNAc(b1-3)Gal(b1-4)Glc
# Procedure, shortened: as §1
# Gal(a1-4)GlcNAc = target: Gal(a1-4)GlcNAc
# Procedure, shortened: as §1
# Gal(a1-6)Glc = target: Gal(a1-6)Glc
# Procedure, shortened: as §1
# Gal(b1-2)Gal = target: Gal(b1-2)Gal
# Procedure, shortened: as §1
# Gal(b1-3)Gal = target: Gal(b1-3)Gal
# Procedure, shortened: as §1
# Gal(b1-3)Gal(b1-4)GlcNAc = target: Gal(b1-3)Gal(b1-4)GlcNAc
# Procedure, shortened: as §1
# Gal(b1-3)GalNAc = target: Gal(b1-3)GalNAc
# Procedure, shortened: as §1
# [5] = target: Gal(b1-3)GalNAc(a1-3)[Fuc(a1-2)]Gal(b1-4)Glc
# Procedure, shortened: as §1
# [6] = target: Gal(b1-3)GalNAc(a1-3)[Fuc(a1-2)]Gal(b1-4)GlcNAc
# Procedure, shortened: as §1
# Gal(b1-3)GalNAc(b1-3)Gal = target: Gal(b1-3)GalNAc(b1-3)Gal
# Procedure, shortened: as §1
# [7] = target: Gal(b1-3)GalNAc(b1-3)Gal(a1-4)Gal(b1-4)Glc
# Procedure, shortened: as §1
# [8] = target: Gal(b1-3)GalNAc(b1-4)Gal(b1-4)Glc
# Procedure, shortened: as §1
# [9] = target: Gal(b1-3)GalNAc(b1-4)[Neu5Ac(a2-3)]Gal(b1-4)Glc
# Procedure, shortened: as §1
# Gal(b1-3)GlcNAc = target: Gal(b1-3)GlcNAc
# Procedure, shortened: as §1
# [10] = target: Gal(b1-3)GlcNAc(a1-3)Gal(b1-4)GlcNAc
# Procedure, shortened: as §1
# [11] = target: Gal(b1-3)GlcNAc(a1-6)Gal(b1-4)GlcNAc
# Procedure, shortened: as §1
# Gal(b1-3)GlcNAc(b1-2)Man = target: Gal(b1-3)GlcNAc(b1-2)Man
# Procedure, shortened: as §1
# [12] = target: Gal(b1-3)GlcNAc(b1-2)Man(a1-3)[Gal(b1-3)GlcNAc(b1-2)Man(a1-6)]Man(b1-4)GlcNAc(b1-4)GlcNAc
# Procedure, shortened: as §1
# [13] = target: Gal(b1-3)GlcNAc(b1-2)Man(a1-3)[Gal(b1-3)GlcNAc(b1-2)Man(a1-6)]Man(b1-4)GlcNAc(b1-4)[Fuc(a1-6)]GlcNAc
# Procedure, shortened: as §1
# [14] = target: Gal(b1-3)GlcNAc(b1-2)Man(a1-3)[GlcNAc(b1-4)][Gal(b1-3)GlcNAc(b1-2)Man(a1-6)]Man(b1-4)GlcNAc(b1-4)GlcNAc
# Procedure, shortened: as §1
# [15] = target: Gal(b1-3)GlcNAc(b1-2)[Gal(b1-3)GlcNAc(b1-6)]Man(a1-6)[Gal(b1-3)GlcNAc(b1-2)Man(a1-3)]Man(b1-4)GlcNAc(b1-4)GlcNAc
# Procedure, shortened: as §1
# [16] = target: Gal(b1-3)GlcNAc(b1-3)Gal(b1-3)GlcNAc
# Procedure, shortened: as §1
# [17] = target: Gal(b1-3)GlcNAc(b1-3)Gal(b1-4)Glc
# Procedure, shortened: as §1
# [18] = target: Gal(b1-3)GlcNAc(b1-3)Gal(b1-4)GlcNAc
# Procedure, shortened: as §1
# [19] = target: Gal(b1-3)GlcNAc(b1-3)Gal(b1-4)GlcNAc(b1-2)Man(a1-3)[Gal(b1-3)GlcNAc(b1-3)Gal(b1-4)GlcNAc(b1-2)Man(a1-6)]Man(b1-4)GlcNAc(b1-4)GlcNAc
# Procedure, shortened: as §1
# [20] = target: Gal(b1-3)GlcNAc(b1-3)Gal(b1-4)GlcNAc(b1-2)[Gal(b1-3)GlcNAc(b1-3)Gal(b1-4)GlcNAc(b1-6)]Man(a1-6)[Gal(b1-3)GlcNAc(b1-3)Gal(b1-4)GlcNAc(b1-2)Man(a1-3)]Man(b1-4)GlcNAc(b1-4)[Fuc(a1-6)]GlcNAc
# Procedure, shortened: as §1
# [21] = target: Gal(b1-3)GlcNAc(b1-3)Gal(b1-4)GlcNAc(b1-3)Gal(b1-4)GlcNAc(b1-2)[Gal(b1-3)GlcNAc(b1-3)Gal(b1-4)GlcNAc(b1-3)Gal(b1-4)GlcNAc(b1-6)]Man(a1-6)[Gal(b1-3)GlcNAc(b1-3)Gal(b1-4)GlcNAc(b1-3)Gal(b1-4)GlcNAc(b1-2)Man(a1-3)]Man(b1-4)GlcNAc(b1-4)[Fuc(a1-6)]GlcNAc
# Procedure, shortened: as §1
# [22] = target: Gal(b1-3)GlcNAc(b1-3)Gal(b1-4)GlcNAc(b1-6)[Gal(b1-3)GlcNAc(b1-3)]Gal(b1-4)Glc
# Procedure, shortened: as §1
# [23] = target: Gal(b1-3)GlcNAc(b1-3)Gal(b1-4)[Fuc(a1-3)]GlcNAc
# Procedure, shortened: as §1
# [24] = target: Gal(b1-3)GlcNAc(b1-3)Gal(b1-4)[Fuc(a1-3)]GlcNAc(b1-6)[Gal(b1-3)GlcNAc(b1-3)]Gal(b1-4)Glc
# Procedure, shortened: as §1
# [25] = target: Gal(b1-3)GlcNAc(b1-3)GalNAc
# Procedure, shortened: as §1
# [26] = target: Gal(b1-3)GlcNAc(b1-6)Gal(b1-4)GlcNAc
# Procedure, shortened: as §1
binder,measurement,setting,value
"Apa (Mycobacterium tuberculosis), Rv1860 (protein) MHQVDPNLTRRKGRLAALAIAAMASASLVTVAVPATANADPEPAPPVPTTAASPPSTAAAPPAPATPVAPPPPAAANTPNAQPGDPNAAPPPADPNAPPPPVIAPNAPQPVRIDNPVGGFSFALPAGWVESDAAHFDYGSALLSKTTGDPPFPGQPPPVANDTRIVLGRLDQKLYASAEATDSKAAARLGSDMGEFYMPYPGTRINQETVSLDANGVSGSASYYEVKFSDPSKPNGQIWTGVIGSPAANAPDAGPPQRWFVVWLGTANNPVDKGAAKALAESIRPLVAPPPAPAPAPAEPAPAPAPAGEVAPTPTTPTPQRTLPA",glycan array binding signal (z-score),Gal(a1-3)GalNAc,-0.131
same,glycan array binding signal (z-score),[1],-0.069
same,glycan array binding signal (z-score),[2],0.25
same,glycan array binding signal (z-score),Gal(a1-4)Gal(b1-4)Glc,-0.349
same,glycan array binding signal (z-score),Gal(a1-4)Gal(b1-4)GlcNAc,0.241
same,glycan array binding signal (z-score),[3],0.346
same,glycan array binding signal (z-score),[4],-0.125
same,glycan array binding signal (z-score),Gal(a1-4)GlcNAc,-0.298
same,glycan array binding signal (z-score),Gal(a1-6)Glc,0.103
same,glycan array binding signal (z-score),Gal(b1-2)Gal,-0.447
same,glycan array binding signal (z-score),Gal(b1-3)Gal,-0.071
same,glycan array binding signal (z-score),Gal(b1-3)Gal(b1-4)GlcNAc,-0.471
same,glycan array binding signal (z-score),Gal(b1-3)GalNAc,-0.031
same,glycan array binding signal (z-score),[5],-0.368
same,glycan array binding signal (z-score),[6],-0.01
same,glycan array binding signal (z-score),Gal(b1-3)GalNAc(b1-3)Gal,-0.381
same,glycan array binding signal (z-score),[7],-0.018
same,glycan array binding signal (z-score),[8],-0.254
same,glycan array binding signal (z-score),[9],-0.504
same,glycan array binding signal (z-score),Gal(b1-3)GlcNAc,-0.057
same,glycan array binding signal (z-score),[10],0.158
same,glycan array binding signal (z-score),[11],0.788
same,glycan array binding signal (z-score),Gal(b1-3)GlcNAc(b1-2)Man,2.77
same,glycan array binding signal (z-score),[12],-0.376
same,glycan array binding signal (z-score),[13],-0.23
same,glycan array binding signal (z-score),[14],0.089
same,glycan array binding signal (z-score),[15],0.06
same,glycan array binding signal (z-score),[16],-0.31
same,glycan array binding signal (z-score),[17],-0.5
same,glycan array binding signal (z-score),[18],-0.186
same,glycan array binding signal (z-score),[19],-0.122
same,glycan array binding signal (z-score),[20],0.082
same,glycan array binding signal (z-score),[21],0.279
same,glycan array binding signal (z-score),[22],-0.185
same,glycan array binding signal (z-score),[23],0.117
same,glycan array binding signal (z-score),[24],-0.365
same,glycan array binding signal (z-score),[25],-0.447
same,glycan array binding signal (z-score),[26],-0.304

# Source: the supplement of paper PMC8728848
